PMC7215714, “Para-Halogenation of Amphetamine and Methcathinone Increases the Mitochondrial Toxicity in Undifferentiated and Differentiated SH-SY5Y Cells” (International Journal of Molecular Sciences, 2020)
pIC50: −log10 of the molar value.

Key:
[1] = test system: undifferentiated and differentiated SH-SY5Y cells; test: Mitochondrial superoxide production (MitoSOX Red); type: cell-based, human; conditions: for Concentration at which mitochondrial superoxide production started to increase: 24 h
[2] = test system: undifferentiated and differentiated SH-SY5Y cells; test: Mitochondrial membrane potential (JC-1 staining); type: cell-based, human; conditions: for Concentration starting to decrease Δψm / Δψm: not toxic up to: 24 h; for Δψm: not toxic up to: both cell models
[3] = test system: undifferentiated and differentiated SH-SY5Y cells; test: Cellular oxygen consumption (Seahorse XF96); conditions: for Concentration reaching statistical significance for decrease of basal and FCCP-stimulated respiration / Effect on oxidative metabolism: 24 h; for Effect on oxidative metabolism: SH-SY5Y cells
[4] = test system: undifferentiated and differentiated SH-SY5Y cells; test: Annexin V/propidium iodide staining (apoptosis/necrosis, flow cytometry); type: cell-based, human; conditions: for Necrosis: concentration reaching statistical significance / Necrosis: starting concentration: 6 h
[5] = test system: undifferentiated and differentiated SH-SY5Y cells; test: Cell membrane integrity, adenylate kinase (AK) release (ToxiLight); type: cell-based, human; conditions: for pIC50: read-out: MT (IC50), membrane toxicity; for Concentration at which significantly membrane toxic: undifferentiated SH-SY5Y
[6] = test system: undifferentiated and differentiated SH-SY5Y cells; test: Intracellular ATP content (CellTiter-Glo); type: cell-based, human
[7] = Homo sapiens, SH-SY5Y, 24 h, differentiated (diff) SH-SY5Y cells, 24 h
[8] = Homo sapiens, SH-SY5Y, 24 h, differentiated (diff) SH-SY5Y cells, 24 h, read-out: ATP (IC50), ATP depletion
[9] = Homo sapiens, SH-SY5Y, 24 h, undifferentiated (und) SH-SY5Y cells, 24 h, read-out: ATP (IC50), ATP depletion
[10] = undifferentiated and differentiated SH-SY5Y cells

CC(N)Cc1ccc(Cl)cc1 (stereo not drawn) [PCA, 4-Chloroamphetamine]
O− production, lowest concentration with significant toxic effect ([1]; Table S1, diff): 2 mM | O− production, lowest concentration with significant toxic effect ([1]; Table S1, und): 0.5 mM | Concentration at which mitochondrial superoxide production started to increase ([1]; differentiated SH-SY5Y cells): trend for an increase at 2000 µM | Concentration at which mitochondrial superoxide production started to increase ([1]; undifferentiated SH-SY5Y cells): 500 µM | MMP, lowest concentration with significant toxic effect ([2]; Table S1, diff): 0.2 mM | MMP, lowest concentration with significant toxic effect ([2]; Table S1, und): 0.5 mM | Concentration starting to decrease Δψm ([2]; differentiated SH-SY5Y cells): 200 µM | Concentration starting to decrease Δψm ([2]; undifferentiated SH-SY5Y cells): 500 µM | OCR, lowest concentration with significant toxic effect ([3]; Table S1, diff): 0.1 mM | OCR, lowest concentration with significant toxic effect ([3]; Table S1, und): 0.05 mM | Concentration reaching statistical significance for decrease of basal and FCCP-stimulated respiration ([3]; differentiated cells): 100 µM | Concentration reaching statistical significance for decrease of basal and FCCP-stimulated respiration ([3]; undifferentiated cells): 50 µM | Apoptosis, lowest concentration with significant toxic effect ([4]; Table S1, diff): 0.1 mM | Necrosis: concentration reaching statistical significance ([4]; differentiated SH-SY5Y cells): 500 µM | Necrosis: starting concentration ([4]; differentiated SH-SY5Y cells): 100 µM | Necrosis: concentration reaching statistical significance ([4]; undifferentiated SH-SY5Y cells): 500 µM | Necrosis: starting concentration ([4]; undifferentiated SH-SY5Y cells): 200 µM | pIC50 [5, 7]: 3.11 | Cytotoxicity, lowest concentration with significant toxic effect ([5]; Table S1, diff): 0.2 mM | Cytotoxicity, lowest concentration with significant toxic effect ([5]; Table S1, und): 0.5 mM | Concentration at which membrane toxicity started ([5]; differentiated cells, 24 h): 200 µM | Concentration at which significantly membrane toxic ([5]; 24 h): 500 µM | pIC50 [6, 8]: 3.41 | pIC50 [6, 9]: 3.38 | pIC50 ([6]; Homo sapiens, SH-SY5Y, both cell types, summary in abstract, read-out: IC50 values for cellular ATP depletion (in the range of)): ~3.40 | ATP depletion, lowest concentration with significant toxic effect ([6]; Table S1, diff): 0.5 mM | ATP depletion, lowest concentration with significant toxic effect ([6]; Table S1, und): 0.2 mM | Concentration at which intracellular ATP content started to decrease ([6]; differentiated cells, 24 h): 500 µM | Concentration at which intracellular ATP content started to decrease ([6]; undifferentiated cells, 24 h): 200 µM

CC(N)Cc1ccccc1 (stereo not drawn) [amphetamine, Amphetamine]
Δψm: not toxic up to [2]: > 2000 µM | Effect on oxidative metabolism [3]: did not affect the oxidative metabolism | pIC50 [5, 7]: < 2.70 | pIC50 ([5]; Homo sapiens, SH-SY5Y, 24 h, undifferentiated (und) SH-SY5Y cells, 24 h): < 2.70 | Cytotoxicity, lowest concentration with significant toxic effect ([5]; Table S1, und): 2 mM | Concentration at which significantly membrane toxic ([5]; 24 h): 2000 µM | pIC50 [6, 8]: < 2.70 | pIC50 [6, 9]: < 2.70 | ATP depletion, lowest concentration with significant toxic effect ([6]; Table S1, und): 2 mM | Concentration at which intracellular ATP content started to decrease ([6]; differentiated cells, 24 h): did not significantly decrease the cellular ATP pool | Concentration at which intracellular ATP content started to decrease ([6]; undifferentiated cells, 24 h): 1000 µM

CNC(C)C(=O)c1ccccc1 (stereo not drawn) [methcathinone]
Δψm: not toxic up to [2]: > 2000 µM | Effect on oxidative metabolism [3]: did not affect the oxidative metabolism | pIC50 ([5]; differentiated (diff) SH-SY5Y cells, 24 h): < 2.70 | pIC50 ([5]; undifferentiated (und) SH-SY5Y cells, 24 h): < 2.70 | Cytotoxicity (membrane damage and/or ATP depletion): not cytotoxic up to [5, 10]: > 2 mM | Membrane toxicity: no toxicity up to [5, 10]: > 2000 µM | pIC50 ([6]; differentiated (diff) SH-SY5Y cells, 24 h, read-out: ATP (IC50), ATP depletion): < 2.70 | Concentration at which intracellular ATP content started to decrease ([6]; differentiated cells, 24 h): did not significantly decrease the cellular ATP pool | pIC50 ([6]; undifferentiated (und) SH-SY5Y cells, 24 h, read-out: ATP (IC50), ATP depletion): < 2.70 | Intracellular ATP content: no toxicity up to [6, 10]: > 2000 µM | Concentration at which intracellular ATP content started to decrease ([6]; undifferentiated cells, 24 h): > 2000 µM
